Assay results: patent US20240269278A1, “ANTI-CD47 ANTIBODY FOR COMBINED TREATMENT OF BLOOD TUMOR” (Nanjing Shunxin Pharmaceuticals Co., Ltd. of Chiatai …, priority 2021, published 2024)

Assays:
[1] = Thermostability assay based on Nano DSF (Prometheus NT.48); assay type: physicochemical
Method: The high-throughput protein stability analyzer Prometheus NT.48 is an instrument for acquiring various types of data such as protein molecular structure stability, aggregation stability, and colloid dispersion stability. The melting temperatures (Tm) and the aggregation temperatures (Tagg) of the anti-CD47 chimeric antibodies and the anti-CD47 humanized antibodies were determined using this instrument.

HL60 cells = assay: Promotion of macrophage phagocytosis of tumor cells (flow cytometry); assay type: cell-based, human; settings: for rate of phagocytosis: CFSE-labeled HL60 cells, human macrophages; for promotion of phagocytosis (in words): 10 and 1 μg/mL
Method: The ability of the anti-CD47 antibodies to promote the phagocytosis of tumor cells by macrophages having SIRPα on the cell surface was determined based on flow cytometry.
Monocytes were isolated from human peripheral blood mononuclear cells (PBMC, Sailybio, Cat. No. 190056) using a monocyte isolation kit ([…], Cat. No. 19058), plated into a 24-well plate (Greiner bio-one, Cat. No. 662-160) at […] cells per well, and induced under 100 ng/mL stimulating factor M-CSF (R&D Systems, Cat. No. 216-MC-010) for 7 days to form macrophages. 1×10^6 target cells HL60 (Shanghai Institute of Biochemistry and Cell Biology, Chinese Academy of Sciences, Cat. No. TCHu23) were suspended in […] CFSE (BD Biosciences, Cat. No. 565082) fluorescent dye (diluted with a PBS buffer to the desired concentration), incubated in a water bath at 37° C. in the dark for 15 min, and washed with a PBS buffer to prepare CFSE-labeled HL60 cells, which were then incubated with each of 10 μg/mL and 1 μg/mL anti-CD47 antibodies (see Table 3 for chimenic antibodies, and see Table 4 for humanized antibodies) in an incubator at 37° C. with 5% CO2 for 1-2 h. The HL60 cells after the incubation were washed three times with a PBS buffer and added to the macrophages. The cells were incubated in an incubator at 37° C. with 5% CO2 for 2-4 h. After the cells were washed three times with a PBS buffer, a mixture of 1260 μL of PBS, 20 μL of anti-APC-CD14 (APC MouseAnti-Human CD14, BD Biosciences, Cat. No. 555399), and 20 μL of PE-CD11b (PE Mouse Anti-Human CD11b/1Mac-1, BD Biosciences, Cat. No. 555388) antibody was added to each well. The cells were incubated at 4° C. in the dark for 30 min, washed three times with a PBS buffer, and digested with trypsin (Gibco, Cat. No. 12604-013). The rate of phagocytosis (%) by the macrophages was determined using a flow cytometer (BD Biosciences, model: C6).

| Molecule | Tagg (aggregation temperature) [1] | Tm (melting temperature) [1] | rate of phagocytosis (HL60 cells; 1 μg/mL antibody) | rate of phagocytosis (HL60 cells; 10 μg/mL antibody) | promotion of phagocytosis (in words) (HL60 cells) |
| --- | --- | --- | --- | --- | --- |
| Xi14A9: chimeric anti-CD47 antibody, heavy chain SEQ ID NO: 105, light chain SEQ ID NO: 107 (antibody, Heavy chain; Light chain) heavy: EVQLQQSGAEVARPGASVKLSCTVSGFNIEDDYIEWVKQRPEQGLEWIGRIDPANDKTKYAPKFQDKATITGDTSSNTAYLQLSSLTSEDTAVYYCTRPGLRRYYSMDYWGQGTSVTVSSASTKGPSVFPLAPCSRSTSESTAALGCLVKDYFPEPVTVSWNSGALTSGVHTFPAVLQSSGLYSLSSVVTVPSSSLGTKTYTCNVDHKPSNTKVDKRV[omitted - human IgG4 Fc with S228P (EU numbers)] light: NIVLTQSPKSMSMSVGERVTLSCKASENVVSYVSWYQQKPEQSPKLLIYGASNRYTGVPDRFIGSGSSTDFTLIISSFQPEDLADYHCGQSYSYPLTFGAGTKLELKRTVAAPSVFIFPPSDEQLKSGTASVVCLLNNFYPREAKVQWKVDNALQSGNSQESVTEQDSKDSTYSLSSTLTLSKADYEKHKVYACEVTHQGLSSPVTKSFNRGEC | 75.75 °C | 66.73 °C | 54.17% | 44.67% | good promoting effects on phagocytosis |
| Xi16E5: chimeric anti-CD47 antibody, heavy chain SEQ ID NO: 93, light chain SEQ ID NO: 95 (antibody, Heavy chain; Light chain) heavy: EVQLQQSGPELKKPGETVKISCKASGYTFTNYGMNWVKQVPGKGLKWMGWINTNTGEPTYAEEFKGRFAFSLETSARTAFLQINNLKNEDTATYFCTRFSHLRGPMDYWGQGASVTVSSASTKGPSVFPLAPCSRSTSESTAALGCLVKDYFPEPVTVSWNSGALTSGVHTFPAVLQSSGLYSLSSVVTVPSSSLGTKTYTCNVDHKPSNTKVDKRV[omitted - human IgG4 Fc with S228P (EU numbers)] light: DAVMTQTPLSLPVSLGDQASISCRSSQSLVHSNGYTYLHWYLQKPGQSPKLLIYKVSNRFSGVPDRFSGSGSGTDFTLKISRLEAEDLGVYFCSQSTHVPPTFGGGTKLEIKRTVAAPSVFIFPPSDEQLKSGTASVVCLLNNFYPREAKVQWKVDNALQSGNSQESVTEQDSKDSTYSLSSTLTLSKADYEKHKVYACEVTHQGLSSPVTKSFNRGEC | 73.39 °C | 69.89 °C | 11.5% | 28.8% | good promoting effects on phagocytosis |
| Xi2H8: chimeric anti-CD47 antibody, heavy chain SEQ ID NO: 89, light chain SEQ ID NO: 91, IgG4 (S228P) (antibody, Heavy chain; Light chain) heavy: QVQLKESGPGLVAPSQSLSITCTVSGFSLTNYGVHWVRQPPGKGLEWLGIIWAGGSTNYNSALMSRLSISKDNSKSQVFLKMNSLQTDDTAMYYCARDDYASMDYWGQGTSVTVSSASTKGPSVFPLAPCSRSTSESTAALGCLVKDYFPEPVTVSWNSGALTSGVHTFPAVLQSSGLYSLSSVVTVPSSSLGTKTYTCNVDHKPSNTKVDKRV[omitted - human IgG4 Fc with S228P (EU numbers)] light: DAFMTQTPLSLPVSLGDQASISCRSSQSLVHSNGNTYLHWYLQKPGQSPKLLIYKVSNRFSGVPDRFSGSGSGTDFTLKISRVEAEDLGVYFCSQSTHVPYTLGGGTKLEIKRTVAAPSVFIFPPSDEQLKSGTASVVCLLNNFYPREAKVQWKVDNALQSGNSQESVTEQDSKDSTYSLSSTLTLSKADYEKHKVYACEVTHQGLSSPVTKSFNRGEC | 68.57 °C | 69.77 °C | 7.1% | 3.5% | – |
| hz14A9-2.4: humanized anti-CD47 antibody, heavy chain SEQ ID NO: 185, light chain SEQ ID NO: 187 (antibody, heavy chain; light chain) heavy: QVQLVQSGAEVKKPGASVKVSCKVSGFNIEDDYIEWVRQAPGQGLEWMGRIDPANDKTKYAQKFQGRVTMTGDTSTNTVYMELSSLRSEDTAVYYCTRPGLRRYYSMDYWGQGTLVTVSSASTKGPSVFPLAPCSRSTSESTAALGCLVKDYFPEPVTVSWNSGALTSGVHTFPAVLQSSGLYSLSSVVTVPSSSLGTKTYTCNVDHKPSNTKVDKRV[omitted - human IgG4 Fc with S228P (EU numbers)] light: DIQMTQSPSSLSASVGDRVTITCKASENVVSYVSWYQQKPGKAPKLLIYGASNRYTGVPSRFIGSGSSTDFTLTISSLQPEDFATYYCGQSYSYPLTFGQGTKLEIKRTVAAPSVFIFPPSDEQLKSGTASVVCLLNNFYPREAKVQWKVDNALQSGNSQESVTEQDSKDSTYSLSSTLTLSKADYEKHKVYACEVTHQGLSSPVTKSFNRGEC | 68.3 °C | 68.3 °C | 81.65% | 81.66% | better performance |
| Xi3F10: chimeric anti-CD47 antibody, heavy chain SEQ ID NO: 101, light chain SEQ ID NO: 103 (antibody, Heavy chain; Light chain) heavy: EVQLQQSVAELMKPGASVKIYCKATGYTFSRYWIEWVKQRPGHGLEWIGEFIPGSDTTNFNEKFKGKATFTAEISSNTAYMQLSSLTSEDSAVYFCARGGLRRMDYWGQGTSVTVSSASTKGPSVFPLAPCSRSTSESTAALGCLVKDYFPEPVTVSWNSGALTSGVHTFPAVLQSSGLYSLSSVVTVPSSSLGTKTYTCNVDHKPSNTKVDKRV[omitted - human IgG4 Fc with S228P (EU numbers)] light: DIVMTQTPAIMSASPGEKVTMTCRASSSVSSTYLHWYQQKSGASPKLWIYTTSTLASGVPARFSGSGSGTSYSLTISSVEAEDAATYYCQQFSDSTWTFGGGTKLEIKRTVAAPSVFIFPPSDEQLKSGTASVVCLLNNFYPREAKVQWKVDNALQSGNSQESVTEQDSKDSTYSLSSTLTLSKADYEKHKVYACEVTHQGLSSPVTKSFNRGEC | 70.59 °C | 70.51 °C | 65.7% | 59.8% | good promoting effects on phagocytosis |
| Xi2B2: chimeric anti-CD47 antibody, heavy chain SEQ ID NO: 97, light chain SEQ ID NO: 99 (antibody, Heavy chain; Light chain) heavy: EVMLVESGGGLVQPGGSLKLSCAASGFTFSNYYMSWVRQTPEKRLEWVAYISSGGGSTYYPDSVKGRFTISRDNAKNTLYLQMSSLKSEDTAMYYCAWFAYWGQGTLVTVSAASTKGPSVFPLAPCSRSTSESTAALGCLVKDYFPEPVTVSWNSGALTSGVHTFPAVLQSSGLYSLSSVVTVPSSSLGTKTYTCNVDHKPSNTKVDKRV[omitted - human IgG4 Fc with S228P (EU numbers)] light: DAVVTQTPLTLSVTIGQPASISCKSSQSLLDSDGKTYLNWLLQRPGQSPKRLIYLVSKLDSGVPDRFTGSGSGTDFTLKISRVEAEDLGVYYCWQGTHFPLTFGAGTKLELKRTVAAPSVFIFPPSDEQLKSGTASVVCLLNNFYPREAKVQWKVDNALQSGNSQESVTEQDSKDSTYSLSSTLTLSKADYEKHKVYACEVTHQGLSSPVTKSFNRGEC | 61.34 °C | 62.99 °C | 7.3% | 4.1% | – |
